Source: the supplement of paper PMC4967469
pIC50: −log10 of the molar value. Lines with a small IC50 respond at low doses; a limit (>, <) means that the fit lies beyond the doses tested. AUC, from the same fit, is the share of area under the viability curve across the 256-fold dose range; values near 1 show little effect. For part of these data: An inferred top dose was calculated from the reported fits. For part of these data: Where an entry number is given, a second screen of the drug exists; the two often differ.

How the values were obtained:
Assay in all cases: Viability of human cancer cell lines after 72 h of drug (GDSC screen)
AZD-0530 = compound: CN1CCN(CCOc2cc(OC3CCOCC3)c3c(Nc4c(Cl)ccc5c4OCO5)ncnc3c2)CC1 [AZD-0530]; conditions: top dose 2 µM
Description: (§1)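 Human cancer cell lines in 384-well plates, medium with 10% serum, drug for 72 h over a 256-fold dose range (nine 2-fold or five 4-fold steps up to the top dose). Adherent lines were fixed and stained with the nucleic acid dye Syto60, suspension lines read with resazurin; signal relative to control wells, capped at 0 and 100%. One two-parameter sigmoid per drug and line, fitted in a mixed model over all curves with the slope shared within a line.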

Epothilone B = compound: C/C(=C\c1csc(C)n1)[C@@H]1C[C@@H]2O[C@]2(C)CCC[C@H](C)[C@H](O)[C@@H](C)C(=O)C(C)(C)[C@@H](O)CC(=O)O1 [Epothilone B]; conditions: top dose 0.032 µM; top dose inferred
Description: as §1

Pyrimethamine = compound: CCc1nc(N)nc(N)c1-c1ccc(Cl)cc1 [Pyrimethamine]; conditions: top dose 20 µM; top dose inferred
Description: as §1

Y-39983 = compound: C[C@@H](N)c1ccc(C(=O)Nc2ccnc3[nH]ccc23)cc1 [Y-39983]; conditions: top dose 20 µM; top dose inferred
Description: as §1

PHA-793887 = compound: CC(C)CC(=O)Nc1n[nH]c2c1CN(C(=O)C1CCN(C)CC1)C2(C)C [PHA-793887]; conditions: top dose 10.24 µM
Description: as §1

PLX4720 = compound: CCCS(=O)(=O)Nc1ccc(F)c(C(=O)c2c[nH]c3ncc(Cl)cc23)c1F [PLX4720]; conditions: top dose 10 µM
Description: as §1

TPCA-1 = compound: NC(=O)Nc1sc(-c2ccc(F)cc2)cc1C(N)=O [TPCA-1]; conditions: top dose 20 µM
Description: as §1

[1] = screen: GDSC drug entry 1371, top dose inferred

Cell Line	AUC (AZD-0530)	pIC50 (AZD-0530)	AUC (Epothilone B)	pIC50 (Epothilone B)	AUC (Pyrimethamine)	pIC50 (Pyrimethamine)	AUC (Y-39983)	pIC50 (Y-39983)	AUC (PHA-793887)	pIC50 (PHA-793887)	AUC (PLX4720; screen: GDSC drug entry 1036)	pIC50 (PLX4720; screen: GDSC drug entry 1036)	AUC (PLX4720; [1])	AUC (TPCA-1)	pIC50 (TPCA-1)	pIC50 (PLX4720; [1])
8-MG-BA (glioma, adherent)	0.983	< 5.70	0.587	8.47	0.876	4.75	0.94	< 4.70	0.659	5.77	0.844	5.19	0.838	0.883	4.72	
697 (lymphoblastic leukaemia, suspension)	0.963	< 5.70	0.484	8.74	0.532	5.82	0.83	5.03	0.119	7.24	0.816	5.38	0.94	0.293	6.43	< 5.00
A3-KAW (B-cell lymphoma, suspension)	0.991	< 5.70	0.704	8.19	0.808	5.10	0.827	5.05	0.182	7.02	0.993	< 5.00	0.94	0.227	6.60	< 5.00
A4-Fuk (B-cell lymphoma, suspension)	0.982	< 5.70	0.436	8.88	0.853	4.78	0.904	< 4.70	0.965	< 4.99	0.874	< 5.00	0.955	0.853	4.78	< 5.00
A101D (melanoma, adherent)	0.971	< 5.70	0.408	8.98	0.922	< 4.70	0.971	< 4.70	0.981	< 4.99	0.501	6.20	0.708	0.903	< 4.70	5.55
A253 (head and neck, adherent)	0.976	< 5.70	0.751		0.902	< 4.70	0.988	< 4.70	0.869	5.05	0.989	< 5.00	0.987	0.97	< 4.70	< 5.00
A388 (skin, adherent)	0.918	< 5.70	0.417	8.94	0.917	< 4.70	0.973	< 4.70	0.904	< 4.99	0.906	< 5.00	0.962	0.912	< 4.70	< 5.00
A498 (kidney, adherent)	0.978	< 5.70	0.849	< 7.49	0.969	< 4.70	0.975	< 4.70	0.953	< 4.99	0.94	< 5.00	0.975	0.965	< 4.70	< 5.00
